± gives the standard error. Variants at the floor of the assay are shown more often than the library holds them.
B1: glmS ribozyme (parent)
chain: AUAAAAGCGCCAGAACUACAGAAAUGUAGUUGACGAGGAGGAGGUUUAUCGAAUUUUCGGCGGAUGCCUCCAAA

Experiments:
Conditions in all cases: with glucosamine-6-phosphate
[1] = variants of: B1; assay: self-cleavage kobs at 640 uM GlcN6P; higher = faster cleavage; RNA array
How it was run: (§1)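 Glucosamine-6-phosphate, from 40 μM to 10 mM in HEPES/KCl/Mg(OAc)2 buffer, was flowed over sequenced MiSeq chips carrying barcoded ribozyme variants transcribed in situ by E. coli RNA polymerase. A hybridised Cy3 probe tracked the variants at 37 °C as tiles were imaged over ~14 h. kobs, kcat and KM were obtained by fitting normalised per-tile medians to exponential decays and then applying weighted Michaelis–Menten fits across concentrations.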

[2] = variants of: B1; assay: self-cleavage kobs at 2500 uM GlcN6P; higher = faster cleavage; RNA array
How it was run: as §1

[3] = variants of: B1; assay: self-cleavage kobs at 160 uM GlcN6P; higher = faster cleavage; RNA array
How it was run: as §1

[4] = variants of: B1; assay: self-cleavage kobs at 10000 uM GlcN6P; higher = faster cleavage; RNA array
How it was run: as §1

Variant | self-cleavage kobs at 640 uM GlcN6P [1] | self-cleavage kobs at 2500 uM GlcN6P [2] | self-cleavage kobs at 160 uM GlcN6P [3] | self-cleavage kobs at 10000 uM GlcN6P [4]
AUAAAAGCGCCCGAACUACAGAAAUGUAGUUGACGAGGAGGAGAUUUAUCGAUUUUUCGGCGGAUGCCUCCAAA [A12C G44A A53U] | 5.92e-05 ± 1.6e-05 s⁻¹ | 0.000169 ± 4.4e-05 s⁻¹ | – | –
AUAAAAGCGCCCGAACUACAGAAAUGUAGUUGACGAGGAGGAGGUUUAUCCAAUUUUCGGCGGAUGCCUCCAAA [A12C G51C] | < 1e-05 s⁻¹ | < 1e-05 s⁻¹ | < 1e-05 s⁻¹ | < 1e-05 s⁻¹
AUAAAAGCGCCCGAACUACAGAAAUGUAGUUGACGAGGAGGAGGUUUAUCGAAUUUUCGUCGUAUGCCUUCAAA [A12C G60U G63U C70U] | < 1e-05 s⁻¹ | – | – | –
AUAAAAGCGCCCGAACUACAGAAAUGUAGUUGACGAGGAGGAGGUUUAUCGAAUUUUCGGCGCAUGCCUCCAAA [A12C G63C] | < 1e-05 s⁻¹ | < 1e-05 s⁻¹ | < 1e-05 s⁻¹ | < 1e-05 s⁻¹
AUAAAAGCGCCCGAACUACAGAAAUGUAGUUGACGAGGAGGAGGUUUAUCGAAUUUUCGGCGGAGGCCUCCAAA [A12C U65G] | 0.000543 ± 8.2e-05 s⁻¹ | 0.00157 ± 0.00024 s⁻¹ | 0.000115 ± 2.1e-05 s⁻¹ | –
AUAAAAGCGCCCGAACUACAGAAAUGUAGUUGACGAGGAGGAGGUUUAUCGAAUUUUCGGCGGAGGUCUCCAAA [A12C U65G C67U] | 0.000474 ± 0.00016 s⁻¹ | – | – | –
AUAAAAGCGCCGGAGCUACAGAAAUGUAGUUGACGAGGAGGAGGUUUAUCGAAUUUUCGGCGGAUGCCUCCAAA [A12G A15G] | 7.71e-05 ± 9.2e-06 s⁻¹ | 0.000155 ± 1.5e-05 s⁻¹ | 2.24e-05 ± 1e-05 s⁻¹ | 0.000371 ± 3.2e-05 s⁻¹
AUAAAAGCGCCGGAGCUACAGAAAUGUAGUUGACGAGGAGGAGGUUUAUCGAAUUUUCGUCGGAUGCCUUUAAA [A12G A15G G60U C70U C71U] | < 1e-05 s⁻¹ | – | – | –
AUAAAAGCGCCGGAACUACAGAAAUGUAGUUGACGAGGAGGAGGUUUAUCGCAUUUUCGGCGGAUGCCUCCAAA [A12G A52C] | < 1e-05 s⁻¹ | – | < 1e-05 s⁻¹ | < 1e-05 s⁻¹
AUAAAAGCGCCGGAACUACAGAAAUGUAGUUGACGAGGAGGAGGUUUAUCGAGUUUUCGGCGGAUGCCUCCAAA [A12G A53G] | 0.000231 ± 3.1e-05 s⁻¹ | 0.000633 ± 7e-05 s⁻¹ | 5.44e-05 ± 7.9e-06 s⁻¹ | 0.00114 ± 0.00015 s⁻¹
AUAAAAGCGCCGGAACUACAGAAAUGUAGUUGACGAGGAGGAGGUUUAUAGAAUUUUGCGCGGAUGCCUCCAAA [A12G C50A C58G G59C] | < 1e-05 s⁻¹ | – | – | –
AUAAAAGCGCCGUAACUACAGAAAUGUAGUUGACGAGGAGGAGGUUUCUCGAAUUUUCGGCGGAUGCCUCCAAA [A12G G13U A48C] | < 1e-05 s⁻¹ | < 1e-05 s⁻¹ | < 1e-05 s⁻¹ | –
AUAAAAGCGCCGGAACUACAGAAAUGUAGUUGACGACGAGGAGGUUUAUCGAAUUUUCGGCGGAUUCCCCCAAA [A12G G37C G66U U69C] | < 1e-05 s⁻¹ | – | – | –
AUAAAAGCGCCGGAACUACAGAAAUGUAGUUGACGAGUAGGCGGUUUAUAGAAUUUUCGGCGGAUGCCUCCAAA [A12G G38U A42C C50A] | < 1e-05 s⁻¹ | – | – | –
AUAAAAGCGCCGGAACUACAGAAAUGUAGUUGACGAGUAGGAGGUUUAUCGAAUUUCCGGCGGAUGCCUCCAAA [A12G G38U U57C] | < 1e-05 s⁻¹ | – | < 1e-05 s⁻¹ | < 1e-05 s⁻¹
AUAAAAGCGCCGGAACUACAGAAAUGUAGUUGACGAGGAGCAGGUUUAUCGAAUUUUCGGCGCAUGCCUCCAAA [A12G G41C G63C] | < 1e-05 s⁻¹ | – | – | < 1e-05 s⁻¹
AUAAAAGCGCCGGAACUACAGAAAUGUAGUUGACGAGGAGGAGGUUUAUCGAAUUUUCCGCGGUUGCCUCCAAA [A12G G59C A64U] | < 1e-05 s⁻¹ | – | – | –

Variant | self-cleavage kobs at 640 uM GlcN6P [1] | self-cleavage kobs at 2500 uM GlcN6P [2] | self-cleavage kobs at 160 uM GlcN6P [3] | self-cleavage kobs at 10000 uM GlcN6P [4]
AUAAAAGCGCCGGAACUACAGAAAUGUAGGUGACGAGGAGGACGUGUAUCGAAUUUUCGGCGGAUGCCUCCAAA [A12G U30G G43C U46G] | < 1e-05 s⁻¹ | – | – | –
AUAAAAGCGCCGGAACUACAGAAAUGUAGUUGACGAGGAGGAGGUUUAACGAAUUUUCGGCGUAUGCCUCCAAA [A12G U49A G63U] | < 1e-05 s⁻¹ | – | < 1e-05 s⁻¹ | –
AUAAAAGCGCCGGAACUACAGAAAUGUAGUUGACGAGGAGGAGGUUUAUCGAAAUUUCGGCGGAUGCCUCCAAA [A12G U54A] | 0.000125 ± 2.3e-05 s⁻¹ | 0.000221 ± 4.5e-05 s⁻¹ | – | 0.000878 ± 0.00013 s⁻¹
AUAAAAGCGCCGGAACUACAGAAAUGUAGUUGACGAGGAGGAGGUUUAUCGAAUUUACGUCGGAUGCCUCCAAA [A12G U57A G60U] | < 1e-05 s⁻¹ | < 1e-05 s⁻¹ | – | < 1e-05 s⁻¹
AUAAAAGCGCCGGAACUACAGAAAUGUAGUUGACGAGGAGGAGGUUUAUCGAAUUUUCGGCGGAUGCCACCAAA [A12G U69A] | 4.87e-05 ± 2.1e-05 s⁻¹ | 0.000171 ± 5.2e-05 s⁻¹ | – | 9.85e-05 ± 1.9e-05 s⁻¹
AUAAAAGCGCCUGGACUACAGAAAUGUAGUUUACGAGGAGGAGCUUUUUCGAAUUUUCGGCGGAUACCUCCAAA [A12U A14G G32U G44C A48U G66A] | < 1e-05 s⁻¹ | < 1e-05 s⁻¹ | – | –
AUAAAAGCGCCUGACCUACAGAAAUGUAGUUGACGAGUAGGAGGUUUAUCGAAUUUUCGGCGGAUGCCUCCAAA [A12U A15C G38U] | < 1e-05 s⁻¹ | – | < 1e-05 s⁻¹ | –
AUAAAAGCGCCUGAACUACAGAAAUGUAGUUGACGAGGCGGUGGUUUAUCGAAUUUUCGACGGAUGCCUCCAAA [A12U A39C A42U G60A] | < 1e-05 s⁻¹ | – | – | –
AUAAAAGCGCCUGAACUACAGAAAUGUAGUUGACGAGGCGGUGGAUUAUCGAAUUUACGGCGGAUGCCUCCAAA [A12U A39C A42U U45A U57A] | < 1e-05 s⁻¹ | – | < 1e-05 s⁻¹ | –
AUAAAAGCGCCUGAACUACAGAAAUGUAGUUGACGAGGCGGAGGUUUAUCGAAUUUUCGGCUGAUGCCUCCAAA [A12U A39C G62U] | < 1e-05 s⁻¹ | – | – | < 1e-05 s⁻¹
AUAAAAGCGCCUGAACUACAGAAAUGUAGUUGACGAGGAGGUGGUUUAUCAAAUUUUCGGCGGAUGCCUCCAAA [A12U A42U G51A] | < 1e-05 s⁻¹ | < 1e-05 s⁻¹ | – | –
AUAAAAGCGCCUGAACUACAGAAAUGUAGUUGACGAGGAGGAGGUUUCUCGAAUUUUCGGCGGAUGCCUCCAAA [A12U A48C] | 0.000142 ± 2.1e-05 s⁻¹ | 0.000341 ± 5.1e-05 s⁻¹ | – | –
AUAAAAGCGCCUGAAAUACAGAAAUGUAGUUGAAGAGGAGGAGGUUUAUCGAUUUUUCGGCGGAUGUCUCCAAA [A12U C16A C34A A53U C67U] | < 1e-05 s⁻¹ | < 1e-05 s⁻¹ | – | –
AUAAAAGCGCCUGAACUACAGAAAUGUAGUUGACGAGGAGGAGGUUUAUCGAAUUUUAGUCGGAUGCCUCCAAA [A12U C58A G60U] | < 1e-05 s⁻¹ | – | < 1e-05 s⁻¹ | –
AUAAAAGCGCCUGAACUACAGAAAUGUAGUUGACGAGGAGGAGGUUUAUCGAAUUUUCGGAUGAUGCCUCCAAA [A12U C61A G62U] | < 1e-05 s⁻¹ | – | – | –
AUAAAAGCGCCUGAACUACAGAAAUGUAGUUGACGAGGAGGAGGUUUAUCGAAUUUUCGGCGGAUGUCUCGAAA [A12U C67U C71G] | 7.19e-05 ± 2.7e-05 s⁻¹ | 6.07e-05 ± 1.3e-05 s⁻¹ | – | 4.02e-05 ± 2e-05 s⁻¹
AUAAAAGCGCCUGAACUACAGAAAUGUAGUUCACGAGGACGAGGUUUAUCGAAUUUUCGGCGGAUGCCUCCAAA [A12U G32C G40C] | < 1e-05 s⁻¹ | < 1e-05 s⁻¹ | – | –
